# This is one part of the list.
# B1: Siglec-9 (Homo sapiens), Q9Y336 (protein)
# chain: MLLLLLPLLWGRERAEGQTSKLLTMQSSVTVQEGLCVHVPCSFSYPSHGWIYPGPVVHGYWFREGANTDQDAPVATNNPARAVWEETRDRFHLLGDPHTKNCTLSIRDARRSDAGRYFFRMEKGSIKWNYKHHRLSVNVTALTHRPNILIPGTLESGCPQNLTCSVPWACEQGTPPMISWIGTSVSPLDPSTTRSSVLTLIPQPQDHGTSLTCQVTFPGASVTTNKTVHLNVSYPPQNLTMTVFQGDGTVSTVLGNGSSLSLPEGQSLRLVCAVDAVDSNPPARLSLSWRGLTLCPSQPSNPGVLELPWVHLRDAAEFTCRAQNPLGSQQVYLNVSLQSKATSGVTQGVVGGAGATALVFLSFCVIFVVVRSCRKKSARPAAGVGDTGIEDANAVRGSASQGPLTEPWAEDSPPDQPPPASARSSVGEGELQYASLSFQMVKPWDSRGQEATDTEYSEIKIHR
# Legend:
# Experiment in all cases: glycan array binding signal (z-score within array); higher = stronger binding
# Settings in all cases: glycan notation: IUPAC condensed, linker removed
# [1] = molecular target: Fuc(a1-2)[Gal(a1-3)]Gal(b1-4)GlcNAc(b1-2)Man(a1-3)[Fuc(a1-2)[Gal(a1-3)]Gal(b1-4)GlcNAc(b1-2)Man(a1-6)]Man(b1-4)GlcNAc(b1-4)GlcNAc
# How it was run: (§1)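 Glycan array binding is given as a within-array Z-score, which can be read as non-binding when negative. The arrays, 3228 of them, came from the Consortium for Functional Glycomics database and were retained only where the protein sequence was available. Z-scores were averaged across arrays of the same protein sequence at different concentrations or buffers and across linkers.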
# [2] = molecular target: Fuc(a1-2)[Gal(a1-3)]Gal(b1-4)GlcNAc(b1-2)Man(a1-3)[Fuc(a1-2)[Gal(a1-3)]Gal(b1-4)GlcNAc(b1-2)Man(a1-6)]Man(b1-4)GlcNAc(b1-4)[Fuc(a1-6)]GlcNAc
# How it was run: as §1
# [3] = molecular target: Fuc(a1-2)[Gal(a1-3)]Gal(b1-4)GlcNAc(b1-3)GalNAc
# How it was run: as §1
# [4] = molecular target: Fuc(a1-2)[Gal(a1-3)]Gal(b1-4)GlcNAc(b1-3)[Fuc(a1-2)[Gal(a1-3)]Gal(b1-4)GlcNAc(b1-6)]GalNAc
# How it was run: as §1
# [5] = molecular target: Fuc(a1-2)[Gal(a1-3)]Gal(b1-4)GlcNAc(b1-6)GalNAc
# How it was run: as §1
# [6] = molecular target: Fuc(a1-2)[Gal(a1-3)]Gal(b1-4)[Fuc(a1-3)]Glc
# How it was run: as §1
# [7] = molecular target: Fuc(a1-2)[Gal(a1-3)]Gal(b1-4)[Fuc(a1-3)]GlcNAc
# How it was run: as §1
# [8] = molecular target: Fuc(a1-2)[Gal(a1-3)]Gal(b1-4)[Fuc(a1-3)]GlcNAc(b1-3)GalNAc
# How it was run: as §1
# [9] = molecular target: Fuc(a1-2)[Gal(a1-4)]Gal(b1-4)GlcNAc
# How it was run: as §1
# [10] = molecular target: Fuc(a1-2)[GalNAc(a1-3)]Gal
# How it was run: as §1
# [11] = molecular target: Fuc(a1-2)[GalNAc(a1-3)]Gal(b1-3)GalNAc(a1-3)[Fuc(a1-2)]Gal(b1-4)GlcNAc
# How it was run: as §1
# [12] = molecular target: Fuc(a1-2)[GalNAc(a1-3)]Gal(b1-3)GalNAc(b1-3)Gal(a1-4)Gal(b1-4)Glc
# How it was run: as §1
# [13] = molecular target: Fuc(a1-2)[GalNAc(a1-3)]Gal(b1-3)GlcNAc
# How it was run: as §1
# [14] = molecular target: Fuc(a1-2)[GalNAc(a1-3)]Gal(b1-3)GlcNAc(b1-2)Man(a1-3)[Fuc(a1-2)[GalNAc(a1-3)]Gal(b1-3)GlcNAc(b1-2)Man(a1-6)]Man(b1-4)GlcNAc(b1-4)GlcNAc
# How it was run: as §1
# [15] = molecular target: Fuc(a1-2)[GalNAc(a1-3)]Gal(b1-3)GlcNAc(b1-2)Man(a1-3)[Fuc(a1-2)[GalNAc(a1-3)]Gal(b1-3)GlcNAc(b1-2)Man(a1-6)]Man(b1-4)GlcNAc(b1-4)[Fuc(a1-6)]GlcNAc
# How it was run: as §1
# [16] = molecular target: Fuc(a1-2)[GalNAc(a1-3)]Gal(b1-3)GlcNAc(b1-3)GalNAc
# How it was run: as §1
# [17] = molecular target: Fuc(a1-2)[GalNAc(a1-3)]Gal(b1-3)GlcNAc(b1-6)GalNAc
# How it was run: as §1
# [18] = molecular target: Fuc(a1-2)[GalNAc(a1-3)]Gal(b1-4)Glc
# How it was run: as §1
# [19] = molecular target: Fuc(a1-2)[GalNAc(a1-3)]Gal(b1-4)GlcNAc
# How it was run: as §1
# [20] = molecular target: Fuc(a1-2)[GalNAc(a1-3)]Gal(b1-4)GlcNAc(b1-2)Man
# How it was run: as §1
# [21] = molecular target: Fuc(a1-2)[GalNAc(a1-3)]Gal(b1-4)GlcNAc(b1-2)Man(a1-3)[Fuc(a1-2)[GalNAc(a1-3)]Gal(b1-4)GlcNAc(b1-2)Man(a1-6)]Man(b1-4)GlcNAc(b1-4)GlcNAc
# How it was run: as §1
# [22] = molecular target: Fuc(a1-2)[GalNAc(a1-3)]Gal(b1-4)GlcNAc(b1-2)Man(a1-3)[Fuc(a1-2)[GalNAc(a1-3)]Gal(b1-4)GlcNAc(b1-2)Man(a1-6)]Man(b1-4)GlcNAc(b1-4)[Fuc(a1-6)]GlcNAc
# How it was run: as §1
# [23] = molecular target: Fuc(a1-2)[GalNAc(a1-3)]Gal(b1-4)GlcNAc(b1-3)Gal(b1-4)GlcNAc
# How it was run: as §1
# [24] = molecular target: Fuc(a1-2)[GalNAc(a1-3)]Gal(b1-4)GlcNAc(b1-3)Gal(b1-4)GlcNAc(b1-3)Gal(b1-4)GlcNAc
# How it was run: as §1
# [25] = molecular target: Fuc(a1-2)[GalNAc(a1-3)]Gal(b1-4)GlcNAc(b1-3)GalNAc
# How it was run: as §1
# [26] = molecular target: Fuc(a1-2)[GalNAc(a1-3)]Gal(b1-4)GlcNAc(b1-3)[Fuc(a1-2)[GalNAc(a1-3)]Gal(b1-4)GlcNAc(b1-6)]GalNAc
# How it was run: as §1
# [27] = molecular target: Fuc(a1-2)[GalNAc(a1-3)]Gal(b1-4)GlcNAc(b1-6)GalNAc
# How it was run: as §1
# [28] = molecular target: Fuc(a1-2)[GalNAc(a1-3)]Gal(b1-4)[Fuc(a1-3)]GlcNAc
# How it was run: as §1
# [29] = molecular target: Fuc(a1-2)[GalNAc(a1-3)]Gal(b1-4)[Fuc(a1-3)]GlcNAc(b1-3)GalNAc
# How it was run: as §1
# [30] = molecular target: Fuc(a1-2)[GalNAc(a1-4)]Gal(b1-4)GlcNAc
# How it was run: as §1
# [31] = molecular target: Fuc(a1-2)[GalNAc(b1-3)]Gal
# How it was run: as §1
# Fuc(a1-3)GlcNAc = molecular target: Fuc(a1-3)GlcNAc
# How it was run: as §1
# [32] = molecular target: Fuc(a1-3)[Gal(b1-4)]Glc6S
# How it was run: as §1
# [33] = molecular target: Fuc(a1-3)[Gal(b1-4)]GlcNAc
# How it was run: as §1
# [34] = molecular target: Fuc(a1-3)[Gal(b1-4)]GlcNAc(b1-2)Man
# How it was run: as §1
# [35] = molecular target: Fuc(a1-3)[Gal(b1-4)]GlcNAc(b1-2)Man(a1-3)[Fuc(a1-3)[Gal(b1-4)]GlcNAc(b1-2)Man(a1-6)]Man(b1-4)GlcNAc(b1-4)GlcNAc
# How it was run: as §1
# [36] = molecular target: Fuc(a1-3)[Gal(b1-4)]GlcNAc(b1-2)Man(a1-3)[Fuc(a1-3)[Gal(b1-4)]GlcNAc(b1-2)Man(a1-6)]Man(b1-4)GlcNAc(b1-4)[Fuc(a1-6)]GlcNAc
# How it was run: as §1
binder,measurement,setting,value
B1,glycan array binding signal (z-score),[1],0.203
same,glycan array binding signal (z-score),[2],-0.186
same,glycan array binding signal (z-score),[3],-0.203
same,glycan array binding signal (z-score),[4],0.718
same,glycan array binding signal (z-score),[5],-0.327
same,glycan array binding signal (z-score),[6],-0.228
same,glycan array binding signal (z-score),[7],0.015
same,glycan array binding signal (z-score),[8],-0.269
same,glycan array binding signal (z-score),[9],-0.071
same,glycan array binding signal (z-score),[10],-0.305
same,glycan array binding signal (z-score),[11],-0.287
same,glycan array binding signal (z-score),[12],-0.125
same,glycan array binding signal (z-score),[13],0.039
same,glycan array binding signal (z-score),[14],-0.183
same,glycan array binding signal (z-score),[15],-0.022
same,glycan array binding signal (z-score),[16],0.031
same,glycan array binding signal (z-score),[17],-0.164
same,glycan array binding signal (z-score),[18],-0.151
same,glycan array binding signal (z-score),[19],-0.18
same,glycan array binding signal (z-score),[20],0.08
same,glycan array binding signal (z-score),[21],-0.28
same,glycan array binding signal (z-score),[22],-0.096
same,glycan array binding signal (z-score),[23],0.019
same,glycan array binding signal (z-score),[24],-0.149
same,glycan array binding signal (z-score),[25],-0.121
same,glycan array binding signal (z-score),[26],0.103
same,glycan array binding signal (z-score),[27],-0.227
same,glycan array binding signal (z-score),[28],-0.264
same,glycan array binding signal (z-score),[29],-0.129
same,glycan array binding signal (z-score),[30],-0.211
same,glycan array binding signal (z-score),[31],-0.33
same,glycan array binding signal (z-score),Fuc(a1-3)GlcNAc,-0.293
same,glycan array binding signal (z-score),[32],0.027
same,glycan array binding signal (z-score),[33],-0.085
same,glycan array binding signal (z-score),[34],-0.1
same,glycan array binding signal (z-score),[35],-0.277
same,glycan array binding signal (z-score),[36],-0.039
